# The whole screen tested about 310,000 compounds, of which about 14,000 (4.5%) showed an effect of 50% or more. Effects have a minus sign here. The list shows a part of the results.
# Biological target: human ether-à-go-go-related gene (hERG) potassium channel (human, UniProt Q12809)
# Assay: primary screen, population patch clamp on CHO cells stably expressing hERG
# 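Also: peak tail current of the secondary pulse compared with the same well before compound.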
# human ether-à-go-go-related gene (hERG) potassium channel, sequence (Q12809 whole entry, looked up): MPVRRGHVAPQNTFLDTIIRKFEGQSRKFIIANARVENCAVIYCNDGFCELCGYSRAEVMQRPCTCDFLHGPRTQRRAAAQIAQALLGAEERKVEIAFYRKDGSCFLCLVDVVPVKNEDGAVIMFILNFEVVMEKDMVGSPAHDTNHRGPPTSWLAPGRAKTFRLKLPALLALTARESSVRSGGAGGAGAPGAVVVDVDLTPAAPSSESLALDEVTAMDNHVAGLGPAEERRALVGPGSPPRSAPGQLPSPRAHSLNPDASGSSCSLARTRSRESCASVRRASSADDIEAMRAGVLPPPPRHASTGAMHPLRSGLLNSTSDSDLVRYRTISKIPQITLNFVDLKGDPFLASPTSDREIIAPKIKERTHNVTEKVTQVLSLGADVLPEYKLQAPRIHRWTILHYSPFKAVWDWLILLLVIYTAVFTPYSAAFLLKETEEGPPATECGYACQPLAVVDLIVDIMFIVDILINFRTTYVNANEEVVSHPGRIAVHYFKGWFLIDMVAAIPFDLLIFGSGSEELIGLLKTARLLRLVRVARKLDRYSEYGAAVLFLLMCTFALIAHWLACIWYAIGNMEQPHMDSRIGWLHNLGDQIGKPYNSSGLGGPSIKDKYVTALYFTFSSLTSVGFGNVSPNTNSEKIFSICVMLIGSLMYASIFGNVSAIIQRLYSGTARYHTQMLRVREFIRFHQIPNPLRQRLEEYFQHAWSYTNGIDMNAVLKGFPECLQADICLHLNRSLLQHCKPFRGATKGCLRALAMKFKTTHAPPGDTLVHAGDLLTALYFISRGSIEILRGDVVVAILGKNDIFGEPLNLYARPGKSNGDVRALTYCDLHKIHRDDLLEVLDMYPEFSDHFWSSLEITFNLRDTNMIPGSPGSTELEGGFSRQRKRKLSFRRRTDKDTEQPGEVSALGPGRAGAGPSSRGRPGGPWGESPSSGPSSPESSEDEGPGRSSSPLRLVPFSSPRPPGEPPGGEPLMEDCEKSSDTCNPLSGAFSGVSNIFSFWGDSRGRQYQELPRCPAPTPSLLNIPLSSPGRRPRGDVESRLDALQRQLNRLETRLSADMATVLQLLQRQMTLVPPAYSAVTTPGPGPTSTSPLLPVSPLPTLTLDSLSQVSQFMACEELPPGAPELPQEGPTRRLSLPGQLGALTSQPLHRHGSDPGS
row,SMILES,"hERG current change (%, negative = inhibition) at 10uM [%]"
1,Cc1cccc(NC(=O)CN(C)CC(=O)NC(c2ccccc2)c2ccccc2)c1C,-30.5
2,O=C(NC1CCCCCC1)c1cc2c(=O)n3ccccc3nc2s1,0.251
3,COC(=O)COc1ccc(-c2ccccc2)cc1C=O,5.39
4,CCC1=NN(C(=O)c2cccc([N+](=O)[O-])c2)C(O)(c2ccc(C)cc2)C1 (stereo not shown),-0.0698
5,CCOC(=O)N1CCC(Nc2c(Nc3ccc(F)cc3)c(=O)c2=O)CC1,16.7
6,CC1(c2nnc(-c3cccc(Cl)c3)o2)CC(c2cccc(Cl)c2)=NO1 (stereo not shown),-1.03
7,O=C1NC(=Nc2ccccc2)S/C1=C\c1cccn1-c1ccccc1,8.02
8,CC(=O)c1cccc(NC(=O)N2CCOCC2)c1,18.1
9,O=C(NCCN1CCOCC1)c1ccc2c(c1)N(Cc1c(F)cccc1Cl)C(=O)c1ccccc1S2,-14.6
10,O=C(Nc1ccc2oc(-c3ccncc3)nc2c1)c1ccco1,-7.85
11,COc1ccc(/C(O)=C2/C(=O)C(=O)N(c3ccccn3)C2c2cccc(Cl)c2)cc1 (stereo not shown),6.83
12,CCCNc1c(NC(=O)COc2ccc(Cl)cc2)c(=O)oc2ccccc12,-32.5
13,O=C1CCC2(C(=O)O)Sc3ccccc3N12 (stereo not shown),4.28
14,CCOc1ccccc1N1CCN(C(=S)Nc2ccc(S(=O)(=O)Nc3ncccn3)cc2)CC1,-3.73
15,O=C(c1ccc(Br)o1)N1CCN(c2ccc(F)cc2)CC1,-45.6
16,CCOc1ccc(NC(=S)N2CCN(S(=O)(=O)c3ccc(C)cc3)CC2)cc1,-13.2
17,COc1ccccc1/C=C/C(=O)Nc1cccnc1,10
18,O=C(COC(=O)c1ccc(NS(=O)(=O)c2ccc3c(c2)OCCO3)cc1)NCC1CCCO1 (stereo not shown),13.3
19,COc1cc(CCN)ccc1O.Cl,15.1
20,C1CCC(n2nnnc2CN2CCCC2)CC1,-1.31
21,CCOC(=O)c1c(NCC2CCCO2)c2ccccc2[nH]c1=O (stereo not shown),0.695
22,O=C(N/N=C/c1cccc([N+](=O)[O-])c1)c1ccccc1-n1cccc1,5.75
23,CN1C(=O)NC(c2ccc(Cl)cc2)C2=C1CC(C)(C)CC2=O (stereo not shown),5.73
24,CCC(=O)N1CCc2cc(S(=O)(=O)N(C)c3ccc(OC)cc3OC)ccc21,19.5
25,O=C(O)C1CCCCC1C(=O)Nc1cccc2ccccc12 (stereo not shown),10.5
26,Cc1cc(C(=O)N/N=C/c2ccc[nH]2)no1,8.35
27,COc1ccc(NC2c3ncccc3C(=O)N2Cc2cccs2)cc1 (stereo not shown),-18.4
28,COCCOC(=O)C1=C(C)N=C2SCCC(=O)N2C1c1ccc(OC(=O)c2ccco2)cc1 (stereo not shown),-13.4

row,SMILES,"hERG current change (%, negative = inhibition) at 10uM [%]"
1,COc1ccc(NC(=O)COC(=O)CNS(=O)(=O)c2ccccc2)cc1OC,18
2,Cc1cc(C)cc(Nc2ccc([N+](=O)[O-])nc2[N+](=O)[O-])c1,13.3
3,O=C(c1ccco1)N1CCN(C(c2cccs2)c2sc3ncnn3c2O)CC1 (stereo not shown),-2.12
4,COc1ccc(CNC(=O)c2cccnc2)cc1,7.16
5,O=C(Cc1ccccc1[N+](=O)[O-])NCc1ccc2c(c1)OCO2,2.62
6,Cc1sc(NC(=S)Nc2ccc(F)cc2)c(C(N)=O)c1C,7.71
7,CCOc1ccc(S(=O)(=O)NCCC(=O)OCC(=O)N2CC(=O)Nc3ccccc32)cc1,10.3
8,OCCCNc1nc(-c2ccc(Cl)cc2)nc2ccccc12,-63.1
9,CC1CCN(C(=O)c2ccc(-c3ccccc3Cl)o2)CC1,-10.7
10,O=C(N/N=C/c1cc2c(cc1Cl)OCO2)c1cc(-c2ccccc2)n[nH]1,8.35
11,CC(=O)c1cc(NC(=O)c2ccc([N+](=O)[O-])cc2)c(=O)oc1C,5.07
12,CC(Oc1ccc(Cl)cc1Cl)c1nc(-c2ccc(NC(=O)c3cccnc3)cc2)no1 (stereo not shown),2.88
13,CCOc1cc(NC(=S)NCC2CCCO2)c(OCC)cc1NC(=O)c1cccc(C)c1 (stereo not shown),7.08
14,Cc1ccc(C(=O)OCC(=O)NCc2cccs2)cc1C,11.7
15,CCc1ccccc1NC(=O)C1C(c2ccccc2)C1(Cl)Cl (stereo not shown),16.7
16,O=C(O)CSc1nnc(NC(=O)CN2CCOCC2)s1,26.5
17,COc1ccc(NS(=O)(=O)c2cc(N)ccc2N2CCCCC2)cc1,-9.8
18,CN(C(=O)c1ccc(Cl)c(S(=O)(=O)N2CCOCC2)c1)c1ccccc1C(=O)O,1.96
19,O=C(NCc1ccc(F)cc1)c1cccc2c1C(=O)c1ccc(Cl)cc1S2(=O)=O,11.3
20,O=C(Nc1ccc2snnc2c1)N1CCN(c2ccccc2)CC1,-57.2
21,CCOC(=O)N1CCN(C(=O)COc2ccc(Br)cc2Cl)CC1,-40.7
22,Cc1csc(Nc2nc(N)c(C(=O)Nc3cc(Cl)ccc3F)o2)n1,4.92
23,CC(=O)N1c2ccc(S(=O)(=O)N3CCCCC3)cc2CC1C(=O)NCc1ccccc1C (stereo not shown),0.812
24,COc1ccc(NCc2nc3ccccc3n2CCOc2ccc(C)cc2)cc1,-7.8
25,NC(=O)C[C@H]1NC(=O)[C@H](CCC(=O)O)NC(=O)c2cc([N+](=O)[O-])cc(I)c2NCCC[C@@H](C(N)=O)NC1=O,7.43
26,CCN(CC)c1ccc(N=Cc2c(O)n(-c3ccc(OC)cc3)c(=O)[nH]c2=O)cc1,12.8
27,COC(=O)c1ccccc1NC(=O)CSc1nc2c(c(=O)[nH]1)CCC2,-7.46

# — paper PMC4336329 (PLoS ONE, 2015)
